In article PMC10868759:
No constants are given. Whether binding was seen depends on the method and setting. Some binding calls cover weakened binding; strength is not graded here.

T1: TIP1-Cub-LexA-VP16 (split-ubiquitin bait) (Arabidopsis thaliana) (UniProt Q52T38)
T1 sequence: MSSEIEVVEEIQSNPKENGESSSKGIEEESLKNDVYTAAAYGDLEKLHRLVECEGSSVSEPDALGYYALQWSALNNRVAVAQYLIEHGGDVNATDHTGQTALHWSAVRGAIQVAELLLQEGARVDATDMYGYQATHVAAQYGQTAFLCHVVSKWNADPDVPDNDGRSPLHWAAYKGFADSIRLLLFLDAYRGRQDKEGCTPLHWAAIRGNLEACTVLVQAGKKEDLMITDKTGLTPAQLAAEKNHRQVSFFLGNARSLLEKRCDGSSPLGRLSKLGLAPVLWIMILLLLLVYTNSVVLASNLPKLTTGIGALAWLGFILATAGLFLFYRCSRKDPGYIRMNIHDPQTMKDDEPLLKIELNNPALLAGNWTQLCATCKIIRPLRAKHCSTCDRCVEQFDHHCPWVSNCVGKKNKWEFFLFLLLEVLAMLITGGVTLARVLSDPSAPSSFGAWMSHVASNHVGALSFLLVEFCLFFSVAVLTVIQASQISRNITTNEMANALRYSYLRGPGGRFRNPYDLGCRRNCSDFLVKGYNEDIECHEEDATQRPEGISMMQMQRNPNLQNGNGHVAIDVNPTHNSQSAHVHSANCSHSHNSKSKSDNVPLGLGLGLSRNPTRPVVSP


Molecular target: T1, TIP1-Cub-LexA-VP16 (split-ubiquitin bait) (Arabidopsis thaliana)
Assay: two-hybrid; split-ubiquitin membrane yeast two-hybrid, NMY51; TIP1-Cub-LexA-VP16 bait, NubG preys; growth on -Ade/-Leu/-Trp/-His with 5 mM 3-amino-1,2,4-triazole, four days at 30°C

binding | Binder
binds | NubG-CESA3 (split-ubiquitin prey) (protein, UniProt Q941L0 1-1065) MESEGETAGKPMKNIVPQTCQICSDNVGKTVDGDRFVACDICSFPVCRPCYEYERKDGNQSCPQCKTRYKRLKGSPAIPGDKDEDGLADEGTVEFNYPQKEKISERMLGWHLTRGKGEEMGEPQYDKEVSHNHLPRLTSRQDTSGEFSAASPERLSVSSTIAGGKRLPYSSDVNQSPNRRIVDPVGLGNVAWKERVDGWKMKQEKNTGPVSTQAASERGGVDIDASTDILADEALLNDEARQPLSRKVSIPSSRINPYRMVIMLRLVILCLFLHYRITNPVPNAFALWLVSVICEIWFALSWILDQFPKWFPVNRETYLDRLALRYDREGEPSQLAAVDIFVSTVDPLKEPPLVTANTVLSILAVDYPVDKVSCYVSDDGAAMLSFESLAETSEFARKWVPFCKKYSIEPRAPEWYFAAKIDYLKDKVQTSFVKDRRAMKREYEEFKIRINALVSKALKCPEEGWVMQDGTPWPGNNTRDHPGMIQVFLGQNGGLDAEGNELPRLVYVSREKRPGFQHHKKAGAMNALVRVSAVLTNGPFILNLDCDHYINNSKALREAMCFLMDPNLGKQVCYVQFPQRFDGIDKNDRYANRNTVFFDINLRGLDGIQGPVYVGTGCVFNRTALYGYEPPIKVKHKKPSLLSKLCGGSRKKNSKAKKESDKKKSGRHTDSTVPVFNLDDIEEGVEGAGFDDEKALLMSQMSLEKRFGQSAVFVASTLMENGGVPPSATPENLLKEAIHVISCGYEDKSDWGMEIGWIYGSVTEDILTGFKMHARGWRSIYCMPKLPAFKGSAPINLSDRLNQVLRWALGSVEILFSRHCPIWYGYNGRLKFLERFAYVNTTIYPITSIPLLMYCTLPAVCLFTNQFIIPQISNIASIWFLSLFLSIFATGILEMRWSGVGIDEWWRNEQFWVIGGVSAHLFAVFQGILKVLAGIDTNFTVTSKASDEDGDFAELYLFKWTTLLIPPTTLLIVNLVGVVAGVSYAINSGYQSWGPLFGKLFFAFWVIVHLYPFLKGLMGRQNRTPTIVVVWSVLLASIFSLLWVRIDPFTSRVTGPDILECGINC
binds | NubG-CESA6 (split-ubiquitin prey) (protein, UniProt Q94JQ6 1-1084) MNTGGRLIAGSHNRNEFVLINADENARIRSVQELSGQTCQICRDEIELTVDGEPFVACNECAFPVCRPCYEYERREGNQACPQCKTRFKRLKGSPRVEGDEEEDDIDDLDNEFEYGNNGIGFDQVSEGMSISRRNSGFPQSDLDSAPPGSQIPLLTYGDEDVEISSDRHALIVPPSLGGHGNRVHPVSLSDPTVAAHPRPMVPQKDLAVYGYGSVAWKDRMEEWKRKQNEKLQVVRHEGDPDFEDGDDADFPMMDEGRQPLSRKIPIKSSKINPYRMLIVLRLVILGLFFHYRILHPVKDAYALWLISVICEIWFAVSWVLDQFPKWYPIERETYLDRLSLRYEKEGKPSGLSPVDVFVSTVDPLKEPPLITANTVLSILAVDYPVDKVACYVSDDGAAMLTFEALSETAEFARKWVPFCKKYCIEPRAPEWYFCHKMDYLKNKVHPAFVRERRAMKRDYEEFKVKINALVATAQKVPEDGWTMQDGTPWPGNSVRDHPGMIQVFLGSDGVRDVENNELPRLVYVSREKRPGFDHHKKAGAMNSLIRVSGVLSNAPYLLNVDCDHYINNSKALREAMCFMMDPQSGKKICYVQFPQRFDGIDRHDRYSNRNVVFFDINMKGLDGLQGPIYVGTGCVFRRQALYGFDAPKKKKGPRKTCNCWPKWCLLCFGSRKNRKAKTVAADKKKKNREASKQIHALENIEEGRVTKGSNVEQSTEAMQMKLEKKFGQSPVFVASARMENGGMARNASPACLLKEAIQVISCGYEDKTEWGKEIGWIYGSVTEDILTGFKMHSHGWRSVYCTPKLAAFKGSAPINLSDRLHQVLRWALGSVEIFLSRHCPIWYGYGGGLKWLERLSYINSVVYPWTSLPLIVYCSLPAICLLTGKFIVPEISNYASILFMALFSSIAITGILEMQWGKVGIDDWWRNEQFWVIGGVSAHLFALFQGLLKVLAGVDTNFTVTSKAADDGEFSDLYLFKWTSLLIPPMTLLIINVIGVIVGVSDAISNGYDSWGPLFGRLFFALWVIIHLYPFLKGLLGKQDRMPTIIVVWSILLASILTLLWVRVNPFVAKGGPILEICGLDCL
